Source: the supplement of paper PMC11417369
± gives the standard deviation of the averaged measurements. Some of the results follow.

Tested on: PfAP2-EXP AP2 domain (GST-tagged)
Experiment: gcPBM binding intensity (ln(normalized median fluorescence intensity)); higher = stronger DNA binding
Outline: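 The binding buffer was 1× PBS containing 1% milk, 0.2 mg/ml BSA, 0.5% salmon testes DNA and 0.03% Triton X-100. In it, GST-tagged P. falciparum DNA-binding domains expressed in E. coli were applied for 1 h to an Agilent 4 × 180k array of primer-extended double-stranded 36-bp intergenic genomic probes plus negative controls. Binding intensity, read with Alexa488 anti-GST antibody and a 488 nm scan, is the highest Masliner-normalised natural-log median intensity across replicate spots of either probe orientation.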

| Sequence | gcPBM binding intensity (ln) |
| --- | --- |
| ATGTCCTATATTAGTACACACATGAAAATATAAATA [CACACA_site7497] | 8.46 ± 0.32 |
| AATATAAAAAAAAACAAAAAAAAAATTTTGGTTCAC [CACACA_negctrl_site1290] | 8.21 ± 0.53 |
| AACCATACACAAATAAACATAGACACAGATACCTCC [CACACA_negctrl_site598] | 8.63 ± 0.53 |
| TCCTATGATGATGATAGTACATATGAGTTCAAAAAA [XGTACX_site273] | 8.4 ± 0.33 |
| ACAATTAATCAAACAAGTACAAAATATATCCCTATT [XGTACX_site6223] | 8.49 ± 0.32 |
| TTATTGTTATTTGTTTGTACATAATATAATATATTA [XGTACX_site6477] | 8.61 ± 0.33 |
| AATATGTGTATAGATAGTACACATGCTGATAATATA [XGTACX_site5941] | 8.59 ± 0.33 |
| AAAATTTTGGAACGTGCACACATATGTAATATATAT [CACACA_site9004] | 9.41 ± 0.43 |
| TTTTTAAAATATTTAACACACAATTATAATGCATAA [CACACA_site3932] | 8.63 ± 0.45 |
| AGTAGTCTGGAGAAATGTACACAGTATCTGGTAGCT [XGTACX_site4871] | 8.45 ± 0.34 |
| ATATTACTTCCTAAGTGTACAAGTAAGGAGAAAAAA [XGTACX_site3921] | 8.74 ± 0.35 |
| GATAAAATGGATGGATGTACATTATTTCCATATAAT [XGTACX_site7781] | 8.55 ± 0.5 |
| AAAAAAAAAAAAAACACACACACAAAATAAACAAAC [CACACA_site2720] | 8.72 ± 0.63 |
| AGATGTTTTTATATATGTACTTAAATACACAAATAT [XGTACX_site8250] | 8.46 ± 0.2 |
| TTATCGGTATAATATAGTACATATAGATATATAATA [XGTACX_site1440] | 8.41 ± 0.34 |
| TGATAATTTTTTACATGTACAAGTTTGTTTTTGCAT [XGTACX_site125] | 8.89 ± 0.35 |
| AATTTCTATTTTGTGAGTACATACTCCTATTATATA [XGTACX_site3210] | 8.78 ± 0.26 |
| TAAAAGTTAATATAAACACACAAAAATTAATAAATA [CACACA_site6316] | 8.62 ± 0.27 |
| ATAATGGAGAAATAAGCATGCATTATATTATAAAAA [TGCATGCA_site325] | 9.31 ± 0.56 |

| Sequence | gcPBM binding intensity (ln) |
| --- | --- |
| TGAATATTTCTATATACACACATATAAATATAAATA [CACACA_site7593] | 8.26 ± 0.36 |
| AAAAAAAAAAAAATGTAATTTTTTAATTATTTATAT [GTGCAC_negctrl_site436] | 7.96 ± 0.43 |
| CATATATTTTTGTATAGTACTTTTTTTATTCGTTTT [XGTACX_site1860] | 8.71 ± 0.45 |
| TATTTTATCATTTGCACACGCACACCGACATAAAAA [CACACA_site4348] | 8.87 ± 0.25 |
| CATCTAAATTGTAGTTGTACACCTTAATCTTATTAC [XGTACX_site7547] | 8.8 ± 0.3 |
| GTATCAAAAGAATACACACACACATACATATATATA [CACACA_site3796] | 8.68 ± 0.38 |
| ACTCTCTTATATTAAACACACATATTTATAGGTATA [CACACA_site7302] | 8.64 ± 0.22 |
| ATTTTAGAATAAATTTTTTACATTAAAAAACTATTT [CACACA_negctrl_site1414] | 7.92 ± 0.33 |
| AAGGATATAACATACACACACACACGGATATAAATA [CACACA_site7867] | 8.93 ± 0.46 |
| TGAACATATTAAAATTGTACATATGCACAATATGTA [XGTACX_site6801] | 8.53 ± 0.39 |
| CATACAATAAATATGGTGCATTTTATGTAACCGTTT [GTGCAC_site9420] | 8.52 ± 0.099 |
| AAAAGGTTATCAATATGTACATATTTTTTTATTTTT [XGTACX_site3277] | 8.59 ± 0.4 |
| AGAAATACAAAATAAATATAAGAAACAAAATATTTA [CACACA_negctrl_site780] | 8.79 ± 0.38 |
| TGAAAAATAAATAAATGTACATATATATATATATAC [XGTACX_site7310] | 8.41 ± 0.12 |
| TATTTCATCATATTGTGTACTTAATTTATATAATTA [XGTACX_site5753] | 8.65 ± 0.32 |
| TTTTAATTAAAACACACACACACATATATATATATA [CACACA_site2291] | 10.2 ± 0.23 |
| ATAAAAATATGATCAACACACGATTAAATATTCATA [CACACA_site1495] | 8.4 ± 0.45 |
| TACATCTGTAATGTGTGTACATATATGTATATATTT [XGTACX_site1805] | 8.48 ± 0.44 |
| CTAAATAAAGTTAACACACACATAATATATATATGT [CACACA_site486] | 8.54 ± 0.43 |

| Sequence | gcPBM binding intensity (ln) |
| --- | --- |
| TAATTTTTATGAAGAAGTACAAAATCTACTATCATA [XGTACX_site4985] | 7.99 ± 0.38 |
| AAAAATTCTTTTTCATCTATATGCAGAAAGAAAAAG [CACACA_negctrl_site1201] | 8.35 ± 0.45 |
| CATAAACTTTTTAACACACACTTATATATATATATA [CACACA_site4747] | 10.3 ± 0.23 |
| TATATGAAGCTATAGACACACATATAAAAATATAAT [CACACA_site4850] | 8.64 ± 0.47 |
| TATAATAATATATATTGTACACACAAAATGGGAAAA [XGTACX_site3911] | 8.94 ± 0.35 |
| GAATTTATGAACTGTGCATGTAAAAAAAACAACAAA [TGCATGCA_site449] | 9.13 ± 0.3 |
| ATATAAAAAAAAGATGAAAAAAAAAATGAAAGAAAG [CACACA_negctrl_site1266] | 8.91 ± 0.55 |
| TTTTTTTTTTTTTACACACACAAAATATTATCTGTA [CACACA_site5378] | 8.54 ± 0.47 |
| ATATATATAATATGATGTACATATTTATTTATATAT [XGTACX_site7333] | 8.53 ± 0.042 |
| AATGAAATAAAATAAAGTACATATATGTAAAAGTAG [XGTACX_site5650] | 9.3 ± 0.42 |
| AATTGAAAAGAATGAAGTACACATTTGATGATACAT [XGTACX_site5182] | 8.62 ± 0.33 |
| TAAATAAATTTATACACACACACACCGATATATATA [CACACA_site4622] | 8.82 ± 0.56 |
| AATAAAAGATCATTTATTCTTTTTTTTCTTTTTAAA [CACACA_negctrl_site1256] | 8.03 ± 0.61 |
| GAATGCCTTGAAAATAGTACAATTAAGAAAAAATAC [XGTACX_site8002] | 8.81 ± 0.27 |
| AAAATACATAAACGTTCACACATTTAAGATAACGAG [CACACA_site5345] | 8.61 ± 0.33 |
| GAGTTTACACTCCCTTGTACATATTCATTTTTATTC [XGTACX_site5208] | 9.06 ± 0.4 |
| TATATATATAATATATGTACATATTAATTATGTATA [XGTACX_site5366] | 8.79 ± 0.13 |
| TGAATAAATATATATACACACATATATGTATATATT [CACACA_site1642] | 8.05 ± 0.42 |
